Here are results for 1 molecule from patent publication US20030082736A1 (IMMUNEX, published 2003).

In this assay the target is T1, human TNF-R (full length, clone pCAV/NOT-TNF-R) expressed on COS-7 cells (human, UniProt P20333 23-461).
T1 construct: also called huTNF-R; recombinant TNF receptor
T1 sequence: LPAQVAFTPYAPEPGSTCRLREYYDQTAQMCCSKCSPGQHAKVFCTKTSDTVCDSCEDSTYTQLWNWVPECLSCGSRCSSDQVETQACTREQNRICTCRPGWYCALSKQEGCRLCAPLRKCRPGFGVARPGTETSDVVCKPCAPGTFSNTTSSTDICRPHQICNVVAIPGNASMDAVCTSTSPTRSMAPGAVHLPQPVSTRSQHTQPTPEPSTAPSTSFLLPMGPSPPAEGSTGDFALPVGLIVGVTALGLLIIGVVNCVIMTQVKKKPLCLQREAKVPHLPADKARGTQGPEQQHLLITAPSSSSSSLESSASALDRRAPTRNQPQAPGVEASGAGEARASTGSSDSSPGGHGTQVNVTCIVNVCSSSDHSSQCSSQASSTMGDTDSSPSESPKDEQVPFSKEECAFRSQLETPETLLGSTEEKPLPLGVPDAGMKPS
The assay can be described thus: plate binding and autoradiography on transfected COS-7 cell monolayers; the pool was narrowed to a single clone.

B1: 125I-labeled FLAG-TNF (recombinant human TNFα fusion protein containing a hydrophilic octapeptide at the N-terminus) (ligand)
chain: not shown
modifications: radioiodinated (125I, IODO-GEN)
notes: also called 125I-TNF
Turning to B1, the binding result was “binds”.
